Legend:
[1] = test system: spinal cord injury (SCI) in BALB/c mice; assay: Histological analysis 28 days after SCI (GFAP tissue sparing, cresyl violet neuron counts, 5-HT innervation); type: in vivo, mouse; details: 5 mg/kg/day oral
Excerpt: (§1) Fenretinide preparation and treatment.
(A) For spinal cord injury studies: 28 days post-lesion, mice were perfused with 4% paraformaldehyde in 0.1M phosphate buffer (PB). 5 mm length of the spinal cord containing the lesion site was removed, cryoprotected with 30% sucrose in 0.1M PB, and cut in serial sections (16 μm thick). Serial tissue sections were immunostained using rat polyclonal antibodies against glial fibrillary acidic protein (GFAP) (1/400; Zymed Labs) and rabbit polyclonal antibodies against 5-hydroxytryptamine (5-HT) (1/5000; Sigma, Aldrich). In addition, one series of serial sections of the spinal cord were stained with cresyl violet to quantify neuronal loss. Tissue sections were viewed with an Axioskop™ 2 Plus microscope (Zeiss) and images captured using a QImaging Retiga™ 1300 camera, and quantification done using BioQuant™ Nova Prime image analysis system (BioQuant Image Analysis Corp.). Tissue sparing was calculated by delineating the GFAP stained areas, and neuronal survival was assessed by counting the neuron profiles in the ventral horn below the level of the central canal of the spinal cord in tissue sections stained with cresyl violet. Assessment of serotonergic fiber innervation was performed by calculating the area occupied by serotonergic axons in the ventral horns of spinal cord sections taken at a distance of 1000 μm caudal to the lesion site.

[2] = test system: SOD1^G93A transgenic mice; assay: Motor function analysis by Rota-rod in ALS mouse model; type: in vivo
Description: Motor function was assessed by Rota-rod (Med Associates Inc., St. Albans, Vt.) two times per week beginning at 70 days of age. An acclimatization period of 3 days was implemented before beginning measurements to allow animals to become familiar with the apparatus. Animals were placed on the rod with a constant rotation of 16 rpm and the time latency to fall was used as a measurement of motor function. Animals remaining on the apparatus after 300 seconds were given a perfect score and the trial was ended. Three consecutive trials were performed with a one minute rest period between each trial and the best result of the three trials was recorded. Mice used for plasma analysis were also included in the Rota-rod experiments as it was determined after evaluating their performance that it was not impaired. In the rare event that an animal's performance improved, the lower “pre-improvement” time point was dropped as it was not considered representative of their true ability given the progressive nature of paralysis in SOD1^G93A mice.

[3] = test system: SOD1^G93A transgenic mice; assay: Survival to clinical endpoint in ALS mouse model
[4] = test system: microglial cells stimulated with LPS; assay: In vitro microglia activation: TNFα release after LPS stimulation (ELISA); type: cell-based, mouse; details: from 18 h before and during LPS 10 ng/ml for 6 h, vs untreated cells
Description: Mouse microglial cultures were prepared as described previously (Saura J et al., 2003. Glia 44:183-189). Briefly, confluent mixed glial cultures prepared from the neonatal cerebral cortex were treated for 30 min with trypsin (0.08%) in the presence of 0.25 mM EDTA and 0.5 mM Ca^2+. This treatment results in the detachment of an intact layer of cells containing virtually all the astrocytes and leaves a population of firmly attached cells identified as >98% microglia as assessed by counts of CD11b-immunoreactive cells (Saura J et al., (2003) Glia 44:183-189). These microglial cells were stimulated by adding lipopolysaccharides (LPS) (10 ng/ml) in DMEM/F12 with 1% penicillin/streptomycin and 1% vitamins for 6 h. The determination of the LPS concentration and incubation time was based on earlier experiments used to optimize conditions for measuring TNFα release from activated microglia. Treatment with fenretinide (0.625 or 1.25 μM in DMEM/F12) was initiated 18 hours prior to LPS stimulation, and continued together with LPS stimulation. The protocol for fenretinide treatment was based on previous studies on toxicity and reduction of TNFα levels in macrophages. The amount of TNFα released in 50 μl of the conditioned medium was determined by ELISA.

[5] = test system: SOD1^G93A transgenic mice; assay: Plasma essential fatty acid profiles in ALS mouse model (TLC/ELISA); type: in vivo; details: for plasma phospholipid-bound DHA: n=8
[6] = test system: humans; details: cited from earlier work
[7] = test system: SOD1^G93A transgenic mice; assay: Fatty acid levels in ALS-affected organs (lumbar spinal cord, brain stem, cerebral cortex); type: in vivo, mouse; details: at clinical endpoint
[8] = test system: SOD1^G93A transgenic mice; assay: Plasma lipid peroxidation/oxidative stress markers (NT, MDA) in ALS mouse model; type: in vivo
[9] = test system: mRNA of IL-1β, TNF-α, MCP-1, COX-1, COX-2, iNOS, cPLA2 GIVA, iPLA2 GVIA and sPLA2 GIIA in injured spinal cord; assay: RT-PCR of pro-inflammatory mediator mRNA in injured spinal cord; type: in vivo, mouse; details: 1 dpi, vs vehicle
Description: as §1
A 5 mm length of the spinal cord containing the lesion site was harvested at 1 dpi from experimental and control groups. The three spinal cords were pooled and RNA was extracted using RNeasy™ Lipid Tissue kit (Qiagen, Mississauga, Ontario, Canada). PCR amplification was performed with specific primers for mouse IL-1β, TNF-α, MCP-1, COX-1, COX-2, iNOS, cPLA2 GIVA, iPLA2 GVIA and sPLA2 GIIA (Table I). Peptidylprolyl isomerase A (PPIA) was used as a control to normalize the cDNA samples used for PCR amplification. Changes in mRNA expression between vehicle- and fenretinide-treated samples were quantified as a ratio of the PPIA optical density value using ImageQuant™ 5.0 software.

## CC1=C(/C=C/C(C)=C/C=C/C(C)=C/C(=O)Nc2ccc(O)cc2)C(C)(C)CCC1 [fenretinide, all-trans-N-(4-hydroxyphenyl) retinamide]
[1]
  reduction of tissue loss (GFAP staining) vs vehicle: about 20%
[1]; 1 mm caudal to lesion epicenter
  greater serotonergic innervation in ventral horn vs vehicle: ~60%
[2]; 5 mg/kg
  decline in motor function in sham-treated animals earlier than in fenretinide-treated group (delay of disease onset): 2 weeks
[2]; day 112, 5 mg/kg fenretinide, 16 rpm, max 300 s, vehicle 162±23
  Rota-rod performance (latency to fall): 216 ± 25 s
[2]; day 116, 5 mg/kg, vehicle 98±18
  Rota-rod performance (latency to fall): 154 ± 27 s
[2]; day 119, 5 mg/kg, vehicle 46±13, in s (unit assumed)
  Rota-rod performance (latency to fall): 109±27
[3]; 5 mg/kg from 30 d of age, vehicle 143.5
  median survival: 148.5 days
[3]; 5 mg/kg, Kaplan-Meier
  fenretinide-treated animals alive after all control mice had reached the endpoint: 17%
[3]; 5 mg/kg, vs control
  increase in survival from the onset of disease: ~10%
[4]; 0.625 μM fenretinide
  reduction in protein levels of TNFα in supernatant: 20%
[4]; 1.25 μM fenretinide
  reduction in protein levels of TNFα in supernatant: 40%
[5]; 60 days of age
  plasma phospholipid-bound AA vs control: slightly lower
[5]; any of the time points (day 60, 90, 120, clinical endpoint)
  statistically significant differences in plasma ceramide concentrations vs control: not observed
[5]; at the clinical endpoint
  plasma phospholipid-bound AA vs vehicle: no significant differences
  plasma phospholipid-bound DHA vs vehicle: no significant differences
  plasma total fatty acids vs vehicle: no significant differences
[5]; day 60
  increase of plasma phospholipid-bound DHA vs control: about 30%
[5]; day 60, 5 mg/kg, control 2.22±0.15
  plasma phospholipid-bound DHA: 2.88±0.18
[5]; day 120
  decrease of plasma phospholipid-bound AA vs control: about 12%
  increase of plasma phospholipid-bound DHA vs control: about 25%
[5]; day 120, n=7, control 39.50±0.94
  plasma phospholipid-bound AA: 34.87±0.91
[5]; day 120, sham 2.63±0.07
  plasma phospholipid-bound DHA: 3.26±0.17
[6]; Reynolds and Lemons 2001
  generalized vascular damage in humans: does not induce generalized vascular damage
[6]; fenretinide used on a prophylactic basis (Ulukaya and Wood 1999)
  side effects in clinical trials: minimal side effects
[7]
  AA level in brain stem vs vehicle: Neither AA nor DHA levels reached a significant difference
  DHA level in brain stem vs vehicle: Neither AA nor DHA levels reached a significant difference
[7]; p≦0.05
  increase in phospholipid-bound DHA in lumbar spinal cord vs vehicle: about 28%
  phospholipid-bound arachidonic acid lower in cerebral cortex vs vehicle: roughly 10%
[8]; 60 days of age
  plasma nitrotyrosine (NT) vs control: lower levels
[8]; 120 days of age, p=0.001
  reduction of plasma malonyldialdehyde (MDA) vs control: about 38%
[8]; day 120, p≦0.001
  plasma nitrotyrosine (NT): control animals higher than fenretinide-treated mice: 45%
[9]
  COX-1 mRNA level: No changes
  COX-2 mRNA level: No changes
  MCP-1 mRNA level: No changes
  cPLA2 GIVA mRNA level reduced: not
  decrease in iNOS mRNA level: 2 fold
  iPLA2 GVIA mRNA level reduced: not
  reduction of sPLA2 GIIA mRNA level: about 50%
[9]; normalized to PPIA
  reduction of IL-1β mRNA level: ~40%
  reduction of TNF-α mRNA level: about 30%

Source: patent publication US9050294B2, “Treatment of neural diseases or conditions” (Royal Institution for the Advancement of Learning/McGill …, priority 2008, dated 2015)
